Laboratory results taken from the supplement of paper PMC11876631.
± gives the standard deviation of the averaged measurements. Laboratory Escherichia coli strains with one amino-acid change in an essential protein, pooled on minimal glucose agar with carbenicillin or gentamicin at twice the control MIC (plus kanamycin and chloramphenicol for the plasmids), 48 h. Fold change of barcode share against drug-free plates; higher = less susceptible. Active = above 20 in both replicates (the paper's putatively resistant). '<' = one read or none on drug, '>' = one read or none on a drug-free plate. Shares are relative, so most strains fall below 1 when a few take over. Listed are strains with at least 15 reads on both drug-free plates, and hits; most hits rest on fewer reference reads. Replicate rank correlation about 0.5. Edits are read from barcodes.

B1: mrdA; numbered along this chain (parent)
chain: MKLQNSFRDYTAESALFVRRALVAFLGILLLTGVLIANLYNLQIVRFTDYQTRSNENRIKLVPIAPSRGIIYDRNGIPLALNRTIYQIEMMPEKVDNVQQTLDALRSVVDLTDDDIAAFRKERARSHRFTSIPVKTNLTEVQVARFAVNQYRFPGVEVKGYKRRYYPYGSALTHVIGYVSKINDKDVERLNNDGKLANYAATHDIGKLGIERYYEDVLHGQTGYEEVEVNNRGRVIRQLKEVPPQAGHDIYLTLDLKLQQYIETLLAGSRAAVVVTDPRTGGVLALVSTPSYDPNLFVDGISSKDYSALLNDPNTPLVNRATQGVYPPASTVKPYVAVSALSAGVITRNTTLFDPGWWQLPGSEKRYRDWKKWGHGRLNVTRSLEESADTFFYQVAYDMGIDRLSEWMGKFGYGHYTGIDLAEERSGNMPTREWKQKRFKKPWYQGDTIPVGIGQGYWTATPIQMSKALMILINDGIVKVPHLLMSTAEDGKQVPWVQPHEPPVGDIHSGYWELAKDGMYGVANRPNGTAHKYFASAPYKIAAKSGTAQVFGLKANETYNAHKIAERLRDHKLMTAFAPYNNPQVAVAMILENGGAGPAVGTLMRQILDHIMLGDNNTDLPAENPAVAAAEDH
B2: lspA; numbered along this chain (parent)
chain: MSQSICSTGLRWLWLVVVVLIIDLGSKYLILQNFALGDTVPLFPSLNLHYARNYGAAFSFLADSGGWQRWFFAGIAIGISVILAVMMYRSKATQKLNNIAYALIIGGALGNLFDRLWHGFVVDMIDFYVGDWHFATFNLADTAICVGAALIVLEGFLPSRAKKQ

Variants of: B1
Assay: barcode share on antibiotic plates over drug-free plates; higher = less susceptible
Settings: with Escherichia coli (laboratory strain); antibiotic: carbenicillin; 2× MIC (3.1 µg/mL)
Procedure: (§1)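 A pool of E. coli strains, each edited to carry one amino-acid change in an essential protein, was grown for 48 h on minimal glucose agar with or without antibiotic; strain barcodes were sequenced; mean of two replicates.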

| Variant | fold change of barcode share |
| --- | --- |
| I176Q | 0.184 ± 0.098 |
| V274A | 0.266 ± 0.15 |
| V274D | 0.18 ± 0.056 |
| V274Q | 0.113 ± 0.083 |
| V275A | 0.269 ± 0.036 |
| V275Q | 0.161 ± 0.014 |
| V275W | 0.0859 ± 0.047 |
| V287A | 0.35 ± 0.12 |
| V287D | 0.296 ± 0.013 |
| V287P | 0.307 ± 0.048 |
| V287Q | 0.287 ± 0.057 |
| V287W | 0.25 ± 0.015 |
| F392W | 0.379 ± 0.0044 |
| I590Q | 0.567 ± 0.57 |
| M604A | 0.651 ± 0.66 |
| M604D | 0.0452 ± 0.0068 |
| M604P | 0.191 ± 0.044 |
| M604Q | 0.278 ± 0.17 |
| M604W | 0.117 ± 0.065 |
| I607A | 0.362 ± 0.15 |
| I607Q | 0.322 ± 0.082 |
| I607W | 0.234 ± 0.11 |

Same assay, conditions: with Escherichia coli (laboratory strain); antibiotic: gentamicin; 2× MIC (MIC 0.45 µg/mL)

| Variant | fold change of barcode share |
| --- | --- |
| I176Q | < 0.0167 |
| V274A | 0.0077 ± 0.0034 |
| V274D | < 0.00868 |
| V274Q | < 0.00736 |
| V275A | < 0.00289 |
| V275Q | 0.0101 ± 0.0021 |
| V275W | 0.0143 ± 0.012 |
| V287A | < 0.00243 |
| V287D | 0.0252 ± 0.029 |
| V287P | 0.00595 ± 0.0046 |
| V287Q | 0.0151 ± 0.015 |
| V287W | 0.728 ± 1 |
| F392W | < 0.00442 |
| I590Q | 0.0297 ± 0.026 |
| M604A | 0.0459 ± 0.058 |
| M604D | < 0.0104 |
| M604P | < 0.00973 |
| M604Q | < 0.00476 |
| M604W | 0.023 ± 0.028 |
| I607A | < 0.00754 |
| I607Q | 0.0126 ± 0.00084 |
| I607W | 0.0067 ± 0.0025 |
| V274W | < 0.019 |

Variants of: B2
Assay: as above
Settings: with Escherichia coli (laboratory strain); antibiotic: carbenicillin; 2× MIC (3.1 µg/mL)
Procedure: as §1

| Variant | fold change of barcode share |
| --- | --- |
| L15A | 0.246 ± 0.03 |
| L15P | 0.547 ± 0.32 |
| L15Q | 0.299 ± 0.21 |
| L15W | 0.193 ± 0.04 |
| V17A | 0.511 ± 0.58 |
| V17D | 0.242 ± 0.17 |
| V17Q | 0.459 ± 0.42 |
| F71A | 0.205 ± 0.096 |
| F71P | 0.424 ± 0.021 |
| F71W | 0.258 ± 0.082 |
| I75A | 1.03 ± 0.35 |
| I75D | 0.341 ± 0.0084 |
| I75P | 0.567 ± 0.19 |
| I75Q | 0.442 ± 0.093 |
| I75W | 0.373 ± 0.25 |
| V146A | 0.275 ± 0.013 |
| V146D | 0.334 ± 0.033 |
| V146P | 0.318 ± 0.068 |
| V146Q | 0.262 ± 0.0059 |
| V146W | 0.228 ± 0.013 |
| L150A | 0.287 ± 0.059 |
| L150D | 0.165 ± 0.081 |
| L150P | 0.409 ± 0.25 |
| L150Q | 0.243 ± 0.14 |
| L150W | 0.252 ± 0.083 |
| I151A | 0.213 ± 0.082 |
| I151D | 0.325 ± 0.0097 |
| I151P | 0.37 ± 0.0069 |
| I151Q | 0.258 ± 0.064 |
| I151W | 0.352 ± 0.053 |

Same assay, conditions: with Escherichia coli (laboratory strain); antibiotic: gentamicin; 2× MIC (MIC 0.45 µg/mL)

| Variant | fold change of barcode share |
| --- | --- |
| L15A | 0.00783 ± 0.0022 |
| L15P | < 0.00703 |
| L15Q | < 0.00576 |
| L15W | < 0.00501 |
| V17A | 0.00968 ± 0.0058 |
| V17D | < 0.00852 |
| V17Q | < 0.00987 |
| F71A | 0.0142 ± 0.005 |
| F71P | < 0.00628 |
| F71W | < 0.0116 |
| I75A | 0.00644 ± 0.004 |
| I75D | < 0.00494 |
| I75P | < 0.0115 |
| I75Q | 0.0145 ± 0.0019 |
| I75W | 0.00846 ± 0.0056 |
| V146A | 0.00534 ± 0.00093 |
| V146D | 0.00371 ± 0.0017 |
| V146P | 0.00449 ± 0.0041 |
| V146Q | 0.00241 ± 0.00078 |
| V146W | < 0.00203 |
| L150A | 0.00848 ± 0.0066 |
| L150D | < 0.0203 |
| L150P | 0.00476 ± 0.0018 |
| L150Q | < 0.00512 |
| L150W | 0.11 ± 0.15 |
| I151A | 0.0128 ± 0.013 |
| I151D | < 0.00394 |
| I151P | 0.00532 ± 0.0049 |
| I151Q | < 0.00503 |
| I151W | 0.00228 ± 0.0011 |
